Source: paper PMC3170326, “AKAP12 and AKAP5 form higher-order hetero-oligomers” (Journal of Molecular Signaling, 2011)
No constants are given. Whether binding was seen depends on the method and setting. In cells and extracts the contact can be indirect. Some entries that bind do so weakly or less than the wild type. For some assays here: Tags and fused reporters may be left off the sequences shown.

Amino acid sequences for entries named in this document (tags omitted).
UniProt P24588: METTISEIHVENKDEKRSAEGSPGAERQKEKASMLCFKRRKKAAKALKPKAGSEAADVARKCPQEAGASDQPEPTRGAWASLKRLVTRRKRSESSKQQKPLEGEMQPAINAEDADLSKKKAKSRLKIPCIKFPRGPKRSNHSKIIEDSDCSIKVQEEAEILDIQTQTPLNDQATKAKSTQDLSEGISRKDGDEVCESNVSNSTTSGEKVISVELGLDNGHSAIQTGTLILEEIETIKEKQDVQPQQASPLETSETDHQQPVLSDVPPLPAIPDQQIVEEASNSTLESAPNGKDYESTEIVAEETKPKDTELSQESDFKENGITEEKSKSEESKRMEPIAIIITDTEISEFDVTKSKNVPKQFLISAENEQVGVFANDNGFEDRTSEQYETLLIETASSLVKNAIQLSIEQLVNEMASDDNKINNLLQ

T1: HA-AKAP12 (1-362) (human) (UniProt Q02952)
T1 sequence: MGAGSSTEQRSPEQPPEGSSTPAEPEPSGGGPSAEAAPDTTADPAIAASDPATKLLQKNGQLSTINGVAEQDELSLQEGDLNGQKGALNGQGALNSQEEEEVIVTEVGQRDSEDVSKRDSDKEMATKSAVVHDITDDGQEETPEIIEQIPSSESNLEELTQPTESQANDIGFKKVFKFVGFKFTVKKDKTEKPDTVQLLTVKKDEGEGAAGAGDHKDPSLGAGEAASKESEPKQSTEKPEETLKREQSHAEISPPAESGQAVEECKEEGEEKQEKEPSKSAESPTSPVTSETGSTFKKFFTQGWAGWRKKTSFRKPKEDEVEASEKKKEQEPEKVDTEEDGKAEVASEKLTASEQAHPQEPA

T2: HA-AKAP12 (1-652) (human) (UniProt Q02952)
T2 sequence: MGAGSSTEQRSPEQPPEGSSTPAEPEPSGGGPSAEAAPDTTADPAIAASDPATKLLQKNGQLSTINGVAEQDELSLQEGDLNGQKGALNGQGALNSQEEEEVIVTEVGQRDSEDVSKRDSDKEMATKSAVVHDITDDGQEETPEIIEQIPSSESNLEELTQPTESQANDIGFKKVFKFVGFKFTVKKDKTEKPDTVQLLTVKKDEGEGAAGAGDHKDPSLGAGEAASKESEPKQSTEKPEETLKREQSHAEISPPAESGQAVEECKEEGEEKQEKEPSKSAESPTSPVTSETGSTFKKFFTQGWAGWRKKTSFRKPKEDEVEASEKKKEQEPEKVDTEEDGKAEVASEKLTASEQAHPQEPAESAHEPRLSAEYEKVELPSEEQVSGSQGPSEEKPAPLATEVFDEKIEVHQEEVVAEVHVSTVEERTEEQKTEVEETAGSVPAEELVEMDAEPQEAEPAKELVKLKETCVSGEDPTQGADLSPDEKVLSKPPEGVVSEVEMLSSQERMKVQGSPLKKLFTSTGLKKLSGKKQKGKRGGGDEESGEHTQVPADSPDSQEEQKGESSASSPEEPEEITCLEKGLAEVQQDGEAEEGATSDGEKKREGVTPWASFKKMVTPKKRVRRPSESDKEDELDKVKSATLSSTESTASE

T3: HA-AKAP12 (554-938) (human) (UniProt Q02952)
T3 sequence: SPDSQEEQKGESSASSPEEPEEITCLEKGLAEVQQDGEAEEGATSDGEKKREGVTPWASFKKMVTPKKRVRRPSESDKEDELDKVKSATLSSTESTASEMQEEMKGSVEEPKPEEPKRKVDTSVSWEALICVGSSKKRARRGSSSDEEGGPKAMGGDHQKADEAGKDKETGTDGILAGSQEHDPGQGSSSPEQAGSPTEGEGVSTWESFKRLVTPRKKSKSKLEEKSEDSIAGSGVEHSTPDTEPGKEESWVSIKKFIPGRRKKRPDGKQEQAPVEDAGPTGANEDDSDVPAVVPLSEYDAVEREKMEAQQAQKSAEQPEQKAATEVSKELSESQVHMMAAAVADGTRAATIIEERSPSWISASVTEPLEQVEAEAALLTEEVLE

T4: HA-tagged AKAP12 (840-1782) (human) (UniProt Q02952)
T4 sequence: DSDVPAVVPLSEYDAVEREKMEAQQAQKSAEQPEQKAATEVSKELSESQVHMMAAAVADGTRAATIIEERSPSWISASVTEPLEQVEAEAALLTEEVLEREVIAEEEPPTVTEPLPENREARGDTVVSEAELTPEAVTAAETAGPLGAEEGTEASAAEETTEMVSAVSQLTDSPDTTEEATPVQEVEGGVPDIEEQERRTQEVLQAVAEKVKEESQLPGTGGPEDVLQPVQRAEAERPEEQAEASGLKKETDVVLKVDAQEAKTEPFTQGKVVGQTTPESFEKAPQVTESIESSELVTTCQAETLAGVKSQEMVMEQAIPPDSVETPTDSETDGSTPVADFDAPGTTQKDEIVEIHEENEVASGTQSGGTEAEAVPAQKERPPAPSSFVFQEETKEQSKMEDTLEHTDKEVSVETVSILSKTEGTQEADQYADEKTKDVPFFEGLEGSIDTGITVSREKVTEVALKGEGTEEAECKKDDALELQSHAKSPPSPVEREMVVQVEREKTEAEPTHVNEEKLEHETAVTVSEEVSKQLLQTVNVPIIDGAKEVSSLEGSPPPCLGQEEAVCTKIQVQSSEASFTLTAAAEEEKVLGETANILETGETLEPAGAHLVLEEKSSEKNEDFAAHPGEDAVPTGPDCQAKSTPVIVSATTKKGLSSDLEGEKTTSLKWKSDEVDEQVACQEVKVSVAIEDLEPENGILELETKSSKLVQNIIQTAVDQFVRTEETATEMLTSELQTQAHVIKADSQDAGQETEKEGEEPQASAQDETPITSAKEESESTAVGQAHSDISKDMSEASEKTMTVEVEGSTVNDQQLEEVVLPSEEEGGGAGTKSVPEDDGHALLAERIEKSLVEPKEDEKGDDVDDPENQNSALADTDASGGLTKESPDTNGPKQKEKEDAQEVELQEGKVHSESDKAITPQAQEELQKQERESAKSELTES


Assays:
Experiment in all cases: co-IP; anti-HA immunoprecipitation from whole-cell lysates of A431 cells co-expressing an HA-tagged and a GFP-tagged AKAP; cells untreated, treated with 10 uM isoproterenol for 10-30 min, or washed free of agonist for 2 h; immunoblot
[1] = biological target: T1, HA-AKAP12 (1-362) (human)
[2] = biological target: T2, HA-AKAP12 (1-652) (human)
[3] = biological target: T3, HA-AKAP12 (554-938) (human)
[4] = biological target: T4, HA-tagged AKAP12 (840-1782) (human)
[5] = biological target: T5, HA-tagged full-length AKAP5 (human, UniProt P24588 1-427)
T5 construct: AKAP5 (AKAP79), human, full length; pCMV-HA vector; also called HA-AKAP5; source: A431 cells, transiently transfected, in lysate

| binding [1] | binding [2] | binding [3] | binding [4] | binding [5] | Molecule |
| --- | --- | --- | --- | --- | --- |
| binds | binds | binds | binds |  | GFP-tagged AKAP5 (from UniProt P24588 1-427) |
|  |  |  |  | binds | GFP-tagged AKAP12 (natural protein, human, UniProt Q02952 1-1782, looked up, AKAP12 (gravin), human, full length; also called AKAP12-GFP; full-length AKAP12; source: A431 cells, stably expressing, in lysate) MGAGSSTEQRSPEQPPEGSSTPAEPEPSGGGPSAEAAPDTTADPAIAASDPATKLLQKNGQLSTINGVAEQDELSLQEGDLNGQKGALNGQGALNSQEEEEVIVTEVGQRDSEDVSKRDSDKEMATKSAVVHDITDDGQEETPEIIEQIPSSESNLEELTQPTESQANDIGFKKVFKFVGFKFTVKKDKTEKPDTVQLLTVKKDEGEGAAGAGDHKDPSLGAGEAASKESEPKQSTEKPEETLKREQSHAEISPPAESGQAVEECKEEGEEKQEKEPSKSAESPTSPVTSETGSTFKKFFTQGWAGWRKKTSFRKPKEDEVEASEKKKEQEPEKVDTEEDGKAEVASEKLTASEQAHPQEPAESAHEPRLSAEYEKVELPSEEQVSGSQGPSEEKPAPLATEVFDEKIEVHQEEVVAEVHVSTVEERTEEQKTEVEETAGSVPAEELVEMDAEPQEAEPAKELVKLKETCVSGEDPTQGADLSPDEKVLSKPPEGVVSEVEMLSSQERMKVQGSPLKKLFTSTGLKKLSGKKQKGKRGGGDEESGEHTQVPADSPDSQEEQKGESSASSPEEPEEITCLEKGLAEVQQDGEAEEGATSDGEKKREGVTPWASFKKMVTPKKRVRRPSESDKEDELDKVKSATLSSTESTASEMQEEMKGSVEEPKPEEPKRKVDTSVSWEALICVGSSKKRARRGSSSDEEGGPKAMGGDHQKADEAGKDKETGTDGILAGSQEHDPGQGSSSPEQAGSPTEGEGVSTWESFKRLVTPRKKSKSKLEEKSEDSIAGSGVEHSTPDTEPGKEESWVSIKKFIPGRRKKRPDGKQEQAPVEDAGPTGANEDDSDVPAVVPLSEYDAVEREKMEAQQAQKSAEQPEQKAATEVSKELSESQVHMMAAAVADGTRAATIIEERSPSWISASVTEPLEQVEAEAALLTEEVLEREVIAEEEPPTVTEPLPENREARGDTVVSEAELTPEAVTAAETAGPLGAEEGTEASAAEETTEMVSAVSQLTDSPDTTEEATPVQEVEGGVPDIEEQERRTQEVLQAVAEKVKEESQLPGTGGPEDVLQPVQRAEAERPEEQAEASGLKKETDVVLKVDAQEAKTEPFTQGKVVGQTTPESFEKAPQVTESIESSELVTTCQAETLAGVKSQEMVMEQAIPPDSVETPTDSETDGSTPVADFDAPGTTQKDEIVEIHEENEVASGTQSGGTEAEAVPAQKERPPAPSSFVFQEETKEQSKMEDTLEHTDKEVSVETVSILSKTEGTQEADQYADEKTKDVPFFEGLEGSIDTGITVSREKVTEVALKGEGTEEAECKKDDALELQSHAKSPPSPVEREMVVQVEREKTEAEPTHVNEEKLEHETAVTVSEEVSKQLLQTVNVPIIDGAKEVSSLEGSPPPCLGQEEAVCTKIQVQSSEASFTLTAAAEEEKVLGETANILETGETLEPAGAHLVLEEKSSEKNEDFAAHPGEDAVPTGPDCQAKSTPVIVSATTKKGLSSDLEGEKTTSLKWKSDEVDEQVACQEVKVSVAIEDLEPENGILELETKSSKLVQNIIQTAVDQFVRTEETATEMLTSELQTQAHVIKADSQDAGQETEKEGEEPQASAQDETPITSAKEESESTAVGQAHSDISKDMSEASEKTMTVEVEGSTVNDQQLEEVVLPSEEEGGGAGTKSVPEDDGHALLAERIEKSLVEPKEDEKGDDVDDPENQNSALADTDASGGLTKESPDTNGPKQKEKEDAQEVELQEGKVHSESDKAITPQAQEELQKQERESAKSELTES |
